# In PubChem BioAssay (NCATS):
# Several values for one entry are separate records, joined by “and”; a condition that tells them apart may be missing. Equal values may be shown once. The list shows a part of the results. Shown are side measurements of this screen, not its main read-out; they come without a call. Compounds called inactive in the main read-out are mostly missing here. For some assays here: Words in brackets tell the shape of the fitted curve; partial curves, single points and poor fits give uncertain potencies.
# Legend:
# [1] = Cell-based coincidence reporter assay to measure PMP22 gene transcription in S16 Pmp22-F2sN cells - Confirmatory screen (AID 1508646); conditions: S16 Schwann cells Pmp22-F2sN, dual luciferase, 24 h
# Method in brief: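 S16 Schwann cells carrying a bioluminescent reporter in the Pmp22 3' UTR (Pmp22-F2sN) were treated with compounds for 24 h at 37C, then lysed; FLuc and then NLuc luminescence were read sequentially with a dual-luciferase kit on a CCD imager.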
# [2] = Validation of Assay for Modulators of Lamin A Splicing (AID 1459); conditions: Lamin A splicing dual RFP/GFP fluorescence reporter, ratio
# Method in brief: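 Splicing correction is reported by an EGFP-containing lamin A minigene in stably transfected S3 HeLa cells, while DsRed2 controls for viability and nonspecific signal. Cells are exposed to compounds for 48 hrs before the GFP over RFP ratio is taken.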
# [3] = qHTS Assay for Modulators of Human Peripheral Myelin Protein 22 (PMP22) Expression/Activity (AID 1967); conditions: Cell-based PMP22 reporter, dual-color luciferase ratio
# Method in brief: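 Quantitative HTS in a mouse Schwann cell line expressing dual click beetle luciferases: Pmp22 promoter (green) and control EF-alpha promoter (red). After 24h treatment, corrected green/red signal ratio gave %Activity relative to untreated cells.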
# [4] = qHTS Validation Assay to Find Inhibitors of Chronic Active B-Cell Receptor Signaling (AID 485345); conditions: ABC-DLBCL cells, chronic BCR signaling reporter
# Method in brief: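 TMD8 ABC-DLBCL cells with dox-inducible green luciferase–IκBα fusion and red native luciferase; compounds 46 uM–3 nM, 4 h at 37C with doxycycline in 0.5% FBS IMDM. Green/red ratio normalized to basal and 10 uM MG-132.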
# [5] = qHTS Assay for Lipid Storage Modulators (AID 1519); conditions: Drosophila S3 cells, BODIPY lipid droplet/cell ratio, laser cytometry, cells loaded with oleic acid; for AC50: measured here: lipid (BODIPY) channel AC50
# Method in brief: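 Cells seeded at 5,000 per well were treated with compounds over a concentration series and loaded with oleic acid (400 uM, as added). Lipid droplet fluorescence (488 nm excitation, 500-530 nm channel) was read by laser-scanning cytometry and normalized to 20 uM Triacsin C.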
# [6] = Nrf2 qHTS screen for inhibitors: Validation (AID 493153); conditions: A549 ARE-Fluc reporter, 18-24 h; AC50: CellTiter-Fluor fluorescence read, measured here: cytotoxicity CellTiter-Fluor AC50; viability change: measured here: cytotoxicity max response
# Method in brief: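 A549 cells carrying an ARE-driven firefly luciferase reporter, in 5% FBS OPTI-MEM, were treated with compounds in concentration-response for 18-24 h at 37°C. Viability was read by CellTiter-Fluor fluorescence, then Nrf2 activity by luciferase luminescence.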
# [7] = qHTS assay for small molecule antagonists of peroxisome proliferator-activated receptor delta signaling (AID 588535); conditions: HEK293T PPARd-UAS-bla, beta-lactamase FRET ratio, 18 h; 460 nm channel;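 note: cells co-treated with a PPAR-delta agonist as stimulator during compound exposure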
# Method in brief: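 GeneBLAzer PPAR-delta-UAS-bla HEK293T cells in medium with 2% charcoal/dextran FBS were preincubated 5 hrs at 37 C, then given compounds, incubated 18 hrs at 37 C, and read by CCF4 beta-lactamase fluorescence; IC50 from Hill fits.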
# [8] = qHTS assay for small molecule antagonists of vitamin D receptor signaling (AID 588541); conditions: HEK293T VDR-UAS-bla, beta-lactamase ratio, antagonist mode; measured here: W460 blue channel (cell viability)
# [9] = qHTS assay for small molecule agonists of retinoid X receptor alpha signaling (AID 588544); conditions: HEK293T RXRa-UAS-bla, beta-lactamase reporter, 18 h; 530 nm emission
# [10] = qHTS assay for small molecule antagonists of retinoid X receptor alpha signaling (AID 588546); conditions: HEK293T RXRa-UAS-bla, beta-lactamase ratio, antagonist mode; measured here: W530 green channel, cytotoxicity proxy;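 note: cells stimulated with 9-cis-retinoic acid as agonist; % is set by controls: 0 for no effect and ±100 for the full control effect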
# Method in brief: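 Beta-lactamase reporter inhibition, read as CCF4 fluorescence ratio (ex 405, em 460/530 nm) after 2 h at RT. HEK293T UAS-bla cells, 2500/well, were stimulated with 9-cis-RA at 500 or 100 nM final alongside test compound for 18 h at 37 C.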
# [11] = measured here: FLuc reporter channel
# [12] = measured here: NLuc reporter channel
# [13] = measured here: green reporter channel AC50, mouse Pmp22 promoter in mouse Schwann cells
# [14] = measured here: red reporter channel AC50, EF-alpha promoter control reporter in MSC80 mouse Schwann cells
# [15] = measured here: CBR control luciferase (viability counter)
# [16] = measured here: cell count channel max response
# [17] = measured here: lipid channel max response
# Tags give direction and shape of the fitted curve.
compound,measurement,setting,value
Cc1ccc(NC(=O)N(Cc2ccc3c(c2)OCO3)C2CCN(Cc3ccccc3)CC2)cc1C,AC50,[1]; [11],"27.3 µM [falling, partial curve, poor fit]"
same,AC50,[1]; [12],"21.7 µM [falling, partial curve]"
C[C@H](N)CN1CCc2ccc(Br)cc21,AC50,[2]; measured here: GFP channel,"28.2 µM [falling, single point]"
same,AC50,[3]; [13],"67.5 µM [falling, partial curve, poor fit]"
same,AC50,[3]; [14],"84.9 µM [falling, partial curve]"
same,AC50,[4]; [15],"18.4 µM [falling, single point]"
C[C@]12CC[C@H]3[C@@H](CCC4C[C@H](O)CC[C@@]43C)[C@@H]1CC[C@@H]2O (stereo not given in full),max response,[5]; [16],49.8%
same,max response,[5]; [17],50%
O=C1CS[C@@H](c2ccccc2Cl)c2cc(Cl)ccc2N1,max response,[5]; [16],24.5%
same,max response,[5]; [17],39.8%
C[N+]1(C)C2CCC1CC(OC(=O)C(CO)c1ccccc1)C2 (stereo not given),max response,[5]; [16],54%
same,max response,[5]; [17],43%
CNC(=O)OCC[N+](C)(C)C,max response,[5]; [16],52.9%
same,max response,[5]; [17],51.7%
Cc1ccc(-n2c(/C=C\c3ccc(F)c(F)c3)nc3ccccc3c2=O)c(C)c1,AC50,[1]; [11],"24.3 µM [falling, partial curve]"
same,AC50,[1]; [12],"43.2 µM [falling, single point]"
COC(=O)C(N)CCCN=C(N)N[N+](=O)[O-] (stereo not given),max response,[5]; [16],39.1%
same,max response,[5]; [17],37.6%
NCc1cc(=O)[nH]o1,max response,[5]; [16],48.6%
same,max response,[5]; [17],50.5%
CC(=O)[C@H]1CC[C@H]2[C@@H]3CCC4=CC(=O)CC[C@]4(C)[C@H]3CC[C@]12C,AC50,[2]; measured here: RFP channel,"35.5 µM [falling, single point]"
same,AC50,[3]; [13],"75.7 µM [falling, single point]"
same,AC50,[3]; [14],"84.9 µM [falling, single point]"
same,AC50,[4]; [15],"2.59 µM [rising, partial curve]"
same,viability change,[6],-5.18%
same,max response,[7],38.8% and 123% and 91.6%
same,AC50,[8],"12.6 µM [rising, full curve, poor fit] and 14.1 µM [rising, full curve, poor fit]"
same,max response,[9],44.3% and 75.1% and 42.5%
same,max response,[10],14.5% and 25.5%
CCC[C@@H]1CC2=CC(=O)CC[C@]2(C)[C@@H]2CC[C@@]3(C)[C@H](CC[C@]3(O)CCC(=O)O)[C@H]12,max response,[5]; [16],36.7%
same,max response,[5]; [17],44.1%
CC(=O)OCC1=C(C(=O)[O-])N2C(=O)[C@@H](NC(=O)CCC[C@@H](N)C(=O)[O-])[C@H]2SC1.[Zn+2],max response,[5]; [16],38.8%
same,max response,[5]; [17],40.4%
CC1OC(=O)C(C(C)C)NC(=O)C(C(C)C)OC(=O)C(C(C)C)NC(=O)C(C)OC(=O)C(C(C)C)NC(=O)C(C(C)C)OC(=O)C(C(C)C)NC(=O)C(C)OC(=O)C(C(C)C)NC(=O)C(C(C)C)OC(=O)C(C(C)C)NC1=O (stereo not given),AC50,[5],"0.282 µM [falling, full curve]"
OC1CCCCC1N1CCC(c2ccccc2)CC1 (stereo not given),max response,[5]; [16],62.4%
same,max response,[5]; [17],66.4%
CCCN(CCC)C1CCc2ccc(O)cc2C1 (stereo not given),max response,[5]; [16],40.5%
same,max response,[5]; [17],41%
N#C/C(=C\c1ccc(O)c(O)c1)C(N)=S,max response,[5]; [16],43%
same,max response,[5]; [17],58.1%
Oc1ccc2c3c1O[C@H]1[C@@H](O)CC[C@@]4(O)C(C2)N(CC2CCC2)CCC314 (stereo not given in full),max response,[5]; [16],38.2%
same,max response,[5]; [17],40.3%
O=[N+]([O-])c1ccc2nc(N3CCNCC3)ccc2c1,AC50,[2]; measured here: GFP channel,"15.8 µM [falling, single point]"
same,AC50,[3]; [13],"67.5 µM [falling, partial curve, poor fit]"
same,AC50,[3]; [14],"75.7 µM [falling, partial curve, poor fit]"
same,AC50,[4]; [15],"18.4 µM [rising, single point]"
same,viability change,[6],-8.71%
CC(=O)OC1C[C@@]2(C)C(c3ccoc3)C[C@H]3O[C@@]32[C@@]2(C)C(=O)C(O)=C3C(C)(C)C(=O)C=C[C@]3(C)C12 (stereo not given in full),AC50,[5],"14.1 µM [falling, partial curve]"
S=C=Nc1cccc(C2(N3CCCCC3)CCCCC2)c1,max response,[5]; [16],62.9%
same,max response,[5]; [17],80.6%
NC(N)=NN=Cc1c(Cl)cccc1Cl,max response,[5]; [16],67%
same,max response,[5]; [17],90.1%
C#CCN[C@H](C)Cc1ccccc1,max response,[5]; [16],31.5%
same,max response,[5]; [17],34.5%
CCCCCCCCCOc1ccc2[nH]cc(CCN)c2c1,max response,[5]; [16],-7.02%
same,max response,[5]; [17],-43.2%
CN(C(=O)Cc1ccc(Cl)c(Cl)c1)[C@@H](CN1CCCC1)c1cccc(OCC(=O)O)c1,max response,[5]; [16],23.7%
same,max response,[5]; [17],30%
NC(N)=Nc1ccc2[nH]c3c(c2c1)C[C@@]1(O)[C@H]2Cc4ccc(O)c5c4[C@@]1(CCN2CC1CC1)[C@H]3O5,AC50,[2]; measured here: GFP channel,"35.5 µM [falling, single point]"
same,AC50,[3]; [13],"37.9 µM [falling, full curve]"
same,AC50,[3]; [14],"47.8 µM [falling, partial curve, poor fit]"
same,AC50,[4]; measured here: CBG/CBR ratio read-out,"13 µM [falling, partial curve]"
same,AC50,[4]; [15],"16.4 µM [falling, single point]"
CC[C@@H]1CN2CCc3cc(OC)c(OC)cc3[C@H]2C[C@@H]1C[C@@H]1NCCc2cc(O)c(OC)cc21,max response,[5]; [16],-27.1%
same,max response,[5]; [17],-53.7%
